Here are results for five molecules from patent publication US20080124340A1 (published 2008).

For assay [1], the target named is T1, human erythropoietin receptor (huEpoR), cell surface expressed (human, UniProt P19235 25-508).
T1 sequence (looked up): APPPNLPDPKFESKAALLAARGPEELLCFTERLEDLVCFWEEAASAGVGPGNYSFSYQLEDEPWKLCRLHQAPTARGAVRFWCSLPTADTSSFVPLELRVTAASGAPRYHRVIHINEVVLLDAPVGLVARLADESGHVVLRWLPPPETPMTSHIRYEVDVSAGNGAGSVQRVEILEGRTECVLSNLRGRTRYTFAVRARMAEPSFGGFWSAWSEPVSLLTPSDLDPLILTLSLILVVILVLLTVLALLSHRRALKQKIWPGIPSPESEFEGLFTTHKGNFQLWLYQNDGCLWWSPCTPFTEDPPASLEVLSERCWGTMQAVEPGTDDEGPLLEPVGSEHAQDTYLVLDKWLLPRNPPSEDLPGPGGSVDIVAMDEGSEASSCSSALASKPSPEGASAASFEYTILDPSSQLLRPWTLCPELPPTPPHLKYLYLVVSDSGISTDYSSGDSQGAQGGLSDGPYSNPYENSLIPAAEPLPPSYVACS
Nature of the assay: cell-based or functional assay.

Assay [2] addresses T2, soluble human erythropoietin receptor protein (huEpoR) (human, UniProt P19235 25-250).
T2 construct: extracellular domain; Called soluble huEpoR; also called huEpoR protein; soluble huEpoR
T2 sequence (looked up): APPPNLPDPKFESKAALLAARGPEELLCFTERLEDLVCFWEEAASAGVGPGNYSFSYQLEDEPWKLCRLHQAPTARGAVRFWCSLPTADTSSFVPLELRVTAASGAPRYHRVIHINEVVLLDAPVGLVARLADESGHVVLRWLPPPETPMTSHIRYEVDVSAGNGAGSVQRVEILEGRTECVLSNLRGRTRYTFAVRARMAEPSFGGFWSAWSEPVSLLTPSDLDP
Nature of the assay: SPR, BIAcore 3000; scFv-Fc captured by anti-human Fc on CM4 chip, huEpoR as analyte.

Assay [3] has as its target T3, mouse EpoR-Fc protein (muEpoR-Fc) (mouse, UniProt P14753 25-249).
T3 construct: Biotinylated in the assay; also called biotinylated muEpoR-Fc; not shown: Fc part not described
T3 sequence (looked up): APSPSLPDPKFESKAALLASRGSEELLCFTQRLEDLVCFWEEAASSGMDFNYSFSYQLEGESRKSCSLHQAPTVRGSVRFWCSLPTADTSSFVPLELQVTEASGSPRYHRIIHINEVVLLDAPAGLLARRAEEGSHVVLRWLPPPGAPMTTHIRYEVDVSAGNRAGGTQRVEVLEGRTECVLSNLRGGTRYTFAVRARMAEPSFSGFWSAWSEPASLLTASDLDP
Put plainly: ELISA: antibody coated at 1 µg/ml, biotinylated muEpoR-Fc at 5 µg/ml, streptavidin-HRP, ABTS. Background: An ELISA detects its analyte on a solid surface through an enzyme-linked reagent.

In assay [4] the target is T4, cynomolgus monkey EpoR (cynoEpoR) (cynomolgus monkey, UniProt A0A2K5WKK4 25-250).
T4 sequence: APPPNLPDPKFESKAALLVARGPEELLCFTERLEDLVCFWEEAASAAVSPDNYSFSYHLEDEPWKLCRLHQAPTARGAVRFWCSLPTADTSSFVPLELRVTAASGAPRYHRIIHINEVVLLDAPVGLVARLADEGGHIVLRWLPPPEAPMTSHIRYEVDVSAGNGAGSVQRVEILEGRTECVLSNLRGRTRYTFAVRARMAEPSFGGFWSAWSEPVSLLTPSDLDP
Put plainly: SPR, Biacore T100; scFv-Fc captured by anti-human IgG Fc on CM5 chip, EpoR as analyte. (SPR reads the build-up and loss of mass on a sensor chip optically.)

B1: Mxb #2 scFv-Fc (Fc fusion)
chain: EVQLVQSGGGLVQPGGSLRLSCAASGFTFSSYWMSWVRQAPGKGLEWVANIKPDGSEKYYVDSVKGRFTISRDNAKNSVYLQMNSLRAEDTAVYYCARVSRGGSYSDWGQGTLVTVSSGGGGSGGGGSGGGGSAQSVLTQPPSASGSPGQSVTISCTGTSSDVGGYNYVSWYQQHPGKAPKLMIYEVSKRPSGVPDRFSGSKSGNTASLTVSGLQPEDEADYYCSSYAGRNWVFGGGTQLTVLGAAA[letters of human IgG1 Fc omitted]
notes: scFv (VH-linker-VL) fused to human IgG1 Fc (maxibody); also called clone 2 scFv-Fc protein
In general, Kd refers to the constant that tells how readily two partners part at equilibrium. As usually defined, the koff is the first-order rate constant of dissociation. One may read the kon as the second-order rate constant of association. For B1, in assay [1], the “Average EC50, UT-7-luciferase assay” value is 0.604 nM. Besides, in assay [2], the affinity, expressed as Kd, was 334 nM; the off-rate (koff) was 0.136 s⁻¹; the kon stood at 410000 M⁻¹ s⁻¹. Further, the binding result in assay [3] is recorded as “binds”.

B2: Mxb #30 scFv-Fc (Fc fusion)
chain: QVQLQESGPGLVKPSQTLSLTCAISGDSVSSNSAAWNWIRQSPSRGLEWLGRTYYRSKWYNDYAVSVKSRMTIKADTSKNQFSLQLNSVTPEDTAVYYCARDEGPLDYWGQGTLVTVSAGGGGSGGGGSGGGGSGAPQAVLTQPSSVSGAPGQRVTISCTGSSSNLGTGYDVHWYQQLPGTAPKLLIYGNSNRPSGVPDRFSGSKSDTSGLLAITGLQAEDEATYYCQSYDFSLSAMVFGGGTKVTVLAAA[letters of human IgG1 Fc omitted]
notes: scFv fused to human IgG1 Fc (maxibody); also called clone 30 scFv-Fc protein
Regarding B2, in assay [1], the “Average EC50, UT-7-luciferase assay” value was 0.67 nM. Besides, in assay [2], the Kd worked out at 14900 nM, the koff was 0.274 s⁻¹ and the on-rate (kon) worked out at 18000 M⁻¹ s⁻¹. In assay [4], this molecule returned a Kd of 2310 nM, a koff of 0.485 s⁻¹ and an on-rate constant (kon) of 211000 M⁻¹ s⁻¹.

B3: Mxb #10 scFv-Fc (Fc fusion)
chain: [letters of about 100 residues omitted]DRVAVAGKGSYYFDSWGRGTTVTVSSGGGGSGGGGSGGGGSAQSVLTQPPSVSEAPGQRVTIACSGSSSNIGNNAVSWYQQLPGKAPTLLIYYDNLLPSGVSDRFSGSKSGTSASLAISGLQSEDEADYYCAAWDDSLNDWVFGGGTKVTVLGAAA[letters of human IgG1 Fc omitted]
notes: scFv fused to human IgG1 Fc (maxibody); also called clone 10 scFv-Fc protein
As to B3, in assay [4], the Kd is 6.83 nM, the koff is 0.00107 s⁻¹ and the kon amounted to 156000 M⁻¹ s⁻¹. Also, the binding result in assay [3] is given as “binds”.

B4: Mxb #7 scFv-Fc (Fc fusion)
chain: EVQLVQSGGGLVQPGGSLRLSCAASGFTFSSYWMSWVRQAPGKGLEWVANIKPDGSEKYYVDSVKGRFTISRDNAKNSVYLQMNSLRAEDTAVYYCARVSRGGSYSDWGKGTLVTVSSGGGGSGGGGSGGGGSAQSALTQPASVSGSPGQSIIISCTGTRSDIGGYNYVSWYQHHPGRAPKLIIFDVNNRPSGVSHRFSGSKSGNTASLTISGLQAEDEADYYCNSFTDSRTWLFGGGTKLTVLGAAA[letters of human IgG1 Fc omitted]
notes: scFv fused to human IgG1 Fc (maxibody); also called clone 7 scFv-Fc protein
With B4, the “Average EC50, UT-7-luciferase assay” value in assay [1] was 0.468 nM. Besides, in assay [2], the Kd came to 271 nM, the koff turned out to be 0.0541 s⁻¹ and the kon was 200000 M⁻¹ s⁻¹. Also, the binding result in assay [3] was “binds”.

B5: Mxb #5 scFv-Fc (Fc fusion)
chain: EVQLVESGGGLVQPGGSLRLSCAASGFTFSSYWMSWVRQAPGKGLEWVANIKPDGSEKYYVDSVKGRFTISRDNAKNSVYLQMNSLRAEDTAVYYCARVSRGGSYSDWGQGTLVTVSSGGGGSGGGGSGGGGSAQSALTQPASVSGSPGQSITISCTGTSSDVGGYIYVSWYQQHPGKAPKLMIYDVSRRPSGISDRFSGSKSGNTASLTISGLQAEDEADYYCNSYTTLSTWLFGGGTKVTVLGAAA[letters of human IgG1 Fc omitted]
notes: scFv fused to human IgG1 Fc (maxibody); also called clone 5 scFv-Fc protein
B5: the “Average EC50, UT-7-luciferase assay” value in assay [1] turned out to be 0.791 nM. Besides, in assay [2], the Kd was determined as 217 nM, the koff is 0.0612 s⁻¹ and the on-rate constant (kon) came to 280000 M⁻¹ s⁻¹. Besides, in assay [4], binding was characterised by a dissociation constant (Kd) of 140 nM, the koff worked out at 0.0611 s⁻¹ and the kon is 437000 M⁻¹ s⁻¹. The binding result in assay [3] is “binds”.
